Source: patent publication US7595299B2, “Peptides as NS3-serine protease inhibitors of hepatitis C virus” (priority 2000, dated 2009)
Starred links: 1 amine or outer side, 2 acyl side, 3 side chain; linkers in the order of their positions; H or OH if unused. Non-standard residues stand in square brackets, D forms with d. Residues, ends and D or L forms follow the SMILES beside them. ξ: configuration not given here. *: point of attachment. Phenylacetyl(3-CH2COOH) = O=C(O)Cc1cccc(CC(=O)*)c1; Succinyl(3ξ-Ph) = O=C(O)C(CC(=O)*)c1ccccc1; Benzoyl(3-COOH) = O=C(O)c1cccc(C(=O)*)c1; Benzoyl(4-COOH) = O=C(O)c1ccc(C(=O)*)cc1; Gly(NCH2CH2Ph) = O=C(O)CNCCc1ccccc1; Isobutyloxycarbonyl = CC(C)COC(=O)*; N(CH2CH2COOH)Gly = O=C(O)CCNCC(=O)O; Cyclopentylacetyl = O=C(CC1CCCC1)*; X4 = CCCC(N[*:1])C(=O)C(=O)[*:2]; X29 = O=C(O)Cc1ccc(CC(=O)*)cc1; X5 = CCOC(=O)C1CCC(OC(=O)*)CC1; X6 = O=C(O)C(CCC(=O)*)c1ccccc1; Chg = N[C@H](C(=O)O)C1CCCCC1; Phg = N[C@H](C(=O)O)c1ccccc1; X10 = O=C(O)C1CCCC(C(=O)*)C1; X28 = O=C(O)C1CCC(C(=O)*)CC1; X33 = COC(=O)C(C)(C)COC(=O)*; X3 = O=C(OC1CCCCC1)*; OBn = c1ccc(CO*)cc1

Molecular target: Recombinant heterodimeric HCV NS3/NS4A protease (strain 1a) (Hepatitis C virus genotype 1a, UniProt P27958)
Experiment: biochemical
Conditions: HCV protease continuous assay, Table 1; read-out: Ki* Range
Experimental: Spectrophotometric Assay: Spectrophotometric assay for the HCV serine protease was performed on the inventive compounds by following the procedure described by R. Zhang et al, Analytical Biochemistry, 270 (1999) 268-275, the disclosure of which is incorporated herein by reference. The assay based on the proteolysis of chromogenic ester substrates is suitable for the continuous monitoring of HCV NS3 protease activity. The substrates were derived from the P side of the NS5A-NS5B junction sequence (Ac-DTEDVVX(Nva), where X=A or P) whose C-terminal carboxyl groups were esterified with one of four different chromophoric alcohols (3- or 4-nitrophenol, 7-hydroxy-4-methyl-coumarin, or 4-phenylazophenol). […] Materials and Methods:
Materials: Chemical reagents for assay related buffers were obtained from Sigma Chemical Company (St. Louis, Mo.). Reagents for peptide synthesis were from Aldrich Chemicals, Novabiochem (San Diego, Calif.), Applied Biosystems (Foster City, Calif.) and Perseptive Biosystems (Framingham, Mass.). Peptides were synthesized manually or on an automated ABI model 431A synthesizer (from Applied Biosystems). UV/VIS Spectrometer model LAMBDA 12 was from Perkin Elmer (Norwalk, Conn.) and 96-well UV plates were obtained from Corning (Corning, N.Y.). The prewarming block was from USA Scientific (Ocala, Fla.) and the 96-well plate vortexer was from Labline Instruments (Melrose Park, Ill.). A Spectramax Plus microtiter plate reader with monochrometer was obtained from Molecular Devices (Sunnyvale, Calif.).
Protein concentrations were determined by the Biorad dye method using recombinant HCV protease standards previously quantified by amino acid analysis. Prior to assay initiation, the enzyme storage buffer (50 mM sodium phosphate pH 8.0, 300 mM NaCl, 10% glycerol, 0.05% lauryl maltoside and 10 mM DTT) was exchanged for the assay buffer (25 mM MOPS pH 6.5, 300 mM NaCl, 10% glycerol, 0.05% lauryl maltoside, 5 μM EDTA and 5 μM DTT) utilizing a Biorad Bio-Spin P-6 prepacked column.
Substrate Synthesis and Purification: The synthesis of the substrates was done as reported by R. Zhang et al, (ibid.) and was initiated by anchoring Fmoc-Nva-OH to 2-chlorotrityl chloride resin using a standard protocol (K. Barlos et al, Int. J. Pept. Protein Res., 37 (1991), 513-520). The peptides were subsequently assembled, using Fmoc chemistry, either manually or on an automatic ABI model 431 peptide synthesizer. […] The combined filtrate and DCM wash was evaporated azeotropically (or repeatedly extracted by aqueous Na2CO3 solution) to remove the acid used in cleavage. The DCM phase was dried over Na2SO4 and evaporated.
The ester substrates were assembled using standard acid-alcohol coupling procedures (K. Holmber et al, Acta Chem. Scand., B33 (1979) 410-412). Peptide fragments were dissolved in anhydrous pyridine (30-60 mg/ml) to which 10 molar equivalents of chromophore and a catalytic amount (0.1 eq.) of para-toluenesulfonic acid (pTSA) were added. Dicyclohexylcarbodiimide (DCC, 3 eq.) was added to initiate the coupling reactions. […] Pyridine solvent was evaporated under vacuum and further removed by azeotropic evaporation with toluene. The peptide ester was deprotected with 95% TFA in DCM for two hours and extracted three times with anhydrous ethyl ether to remove excess chromophore. The deprotected substrate was purified by reversed phase HPLC on a C3 or C8 column with a 30% to 60% acetonitrile gradient (using six column volumes).

| Compound | Ki [nM] |
| --- | --- |
| CCCC(NC(=O)[C@H](CC(C)C)NC(=O)[C@@H](NC(=O)CC(C(=O)O)c1ccccc1)C1CCCCC1)C(=O)C(=O)NCC(=O)N[C@H](C(=O)OCc1ccccc1)c1ccccc1 (stereo partly shown) [Example 15] ({Succinyl(3ξ-Ph)}-[Chg]L[X4]G[Phg]-OBn) | 101 to 1000 |
| CCCC(NC(=O)[C@H](CC(C)C)NC(=O)[C@@H](NC(=O)CC(C(=O)O)c1ccccc1)C1CCCCC1)C(=O)C(=O)NCC(=O)N[C@H](C(=O)O)c1ccccc1 (stereo partly shown) [Example 16] ({Succinyl(3ξ-Ph)}-[Chg]L[X4]G[Phg]-OH) | < 100 |
| CCCC(NC(=O)[C@H](CC(C)C)NC(=O)[C@@H](NC(=O)CCC(C(=O)O)c1ccccc1)C1CCCCC1)C(=O)C(=O)NCC(=O)N[C@H](C(=O)OCc1ccccc1)c1ccccc1 (stereo partly shown) [Example 17] (X6-[Chg]L[X4]G[Phg]-OBn) | 101 to 1000 |
| CCCC(NC(=O)[C@H](CC(C)C)NC(=O)[C@@H](NC(=O)CCC(C(=O)O)c1ccccc1)C1CCCCC1)C(=O)C(=O)NCC(=O)N[C@H](C(=O)O)c1ccccc1 (stereo partly shown) [Example 18] (X6-[Chg]L[X4]G[Phg]-OH) | < 100 |

Same assay, conditions: Table 3, solid phase compounds; read-out: Ki* CLASS

| Compound | Ki [nM] |
| --- | --- |
| CCCC(NC(=O)CN(CCC(=O)OC(C)(C)C)C(=O)[C@@H](NC(=O)OCC(C)C)C1CCCCC1)C(=O)C(=O)NCC(=O)N[C@H](C(N)=O)c1ccccc1 (stereo partly shown) | > 1000 |
| CCCC(NC(=O)CN(CCc1ccccc1)C(=O)[C@@H](NC(=O)CC1CCCC1)C1CCCCC1)C(=O)C(=O)NCC(=O)N[C@H](C(N)=O)c1ccccc1 (stereo partly shown) (Cyclopentylacetyl-[Chg][Gly(NCH2CH2Ph)][X4]G[Phg]-NH2) | 101 to 1000 |
| CCCC(NC(=O)CN(CCC(=O)O)C(=O)[C@@H](NC(=O)OCC(C)C)C1CCCCC1)C(=O)C(=O)NCC(=O)N[C@H](C(N)=O)c1ccccc1 (stereo partly shown) (Isobutyloxycarbonyl-[Chg][N(CH2CH2COOH)Gly][X4]G[Phg]-NH2) | > 1000 |
| CCCC(NC(=O)[C@H](CC(C)C)NC(=O)[C@@H](NC(=O)OC1CCCCC1)C1CCCCC1)C(=O)C(=O)NCC(=O)N[C@H](C(=O)O)c1ccccc1 (stereo partly shown) (X3-[Chg]L[X4]G[Phg]-OH) | 101 to 1000 |
| CCCC(NC(=O)[C@H](CC(C)C)NC(=O)[C@@H](NC(=O)OC1CCC(C(=O)OCC)CC1)C1CCCCC1)C(=O)C(=O)NCC(=O)N[C@H](C(=O)O)c1ccccc1 (stereo partly shown) (X5-[Chg]L[X4]G[Phg]-OH) | 101 to 1000 |
| CCCC(NC(=O)[C@H](CC(C)C)NC(=O)[C@@H](NC(=O)C1CCCC(C(=O)O)C1)C1CCCCC1)C(=O)C(=O)NCC(=O)N[C@H](C(=O)O)c1ccccc1 (stereo partly shown) (X10-[Chg]L[X4]G[Phg]-OH) | 101 to 1000 |
| CCCC(NC(=O)[C@H](CC(C)C)NC(=O)[C@@H](NC(=O)C1CCC(C(=O)O)CC1)C1CCCCC1)C(=O)C(=O)NCC(=O)N[C@H](C(=O)O)c1ccccc1 (stereo partly shown) (X28-[Chg]L[X4]G[Phg]-OH) | 101 to 1000 |
| CCCC(NC(=O)[C@H](CC(C)C)NC(=O)[C@@H](NC(=O)Cc1ccc(CC(=O)O)cc1)C1CCCCC1)C(=O)C(=O)NCC(=O)N[C@H](C(=O)O)c1ccccc1 (stereo partly shown) (X29-[Chg]L[X4]G[Phg]-OH) | 101 to 1000 |
| CCCC(NC(=O)[C@H](CC(C)C)NC(=O)[C@@H](NC(=O)OCC(C)(C)C(=O)OC)C1CCCCC1)C(=O)C(=O)NCC(=O)N[C@H](C(=O)O)c1ccccc1 (stereo partly shown) (X33-[Chg]L[X4]G[Phg]-OH) | 101 to 1000 |
| CCCC(NC(=O)[C@H](CC(C)C)NC(=O)[C@@H](NC(=O)c1cccc(C(=O)O)c1)C1CCCCC1)C(=O)C(=O)NCC(=O)N[C@H](C(=O)O)c1ccccc1 (stereo partly shown) ({Benzoyl(3-COOH)}-[Chg]L[X4]G[Phg]-OH) | 101 to 1000 |
| CCCC(NC(=O)[C@H](CC(C)C)NC(=O)[C@@H](NC(=O)c1ccc(C(=O)O)cc1)C1CCCCC1)C(=O)C(=O)NCC(=O)N[C@H](C(=O)O)c1ccccc1 (stereo partly shown) ({Benzoyl(4-COOH)}-[Chg]L[X4]G[Phg]-OH) | 101 to 1000 |
| CCCC(NC(=O)[C@H](CC(C)C)NC(=O)[C@@H](NC(=O)Cc1cccc(CC(=O)O)c1)C1CCCCC1)C(=O)C(=O)NCC(=O)N[C@H](C(=O)O)c1ccccc1 (stereo partly shown) ({Phenylacetyl(3-CH2COOH)}-[Chg]L[X4]G[Phg]-OH) | 101 to 1000 |
